# From paper PMC4058081, “p600 regulates spindle orientation in apical neural progenitors and contributes to neurogenesis in the developing neocortex” (Biology Open, 2014)
# Chains of the proteins cited; added tags and fusions are not shown. A line that says so, or that is headed by a name, gives the form on record, which may keep a tag or linker. Residues count along the entry.
# FLAG-tagged p600 fragment containing residues 3214–3899 (Q5T4S7, residues 3214-3899): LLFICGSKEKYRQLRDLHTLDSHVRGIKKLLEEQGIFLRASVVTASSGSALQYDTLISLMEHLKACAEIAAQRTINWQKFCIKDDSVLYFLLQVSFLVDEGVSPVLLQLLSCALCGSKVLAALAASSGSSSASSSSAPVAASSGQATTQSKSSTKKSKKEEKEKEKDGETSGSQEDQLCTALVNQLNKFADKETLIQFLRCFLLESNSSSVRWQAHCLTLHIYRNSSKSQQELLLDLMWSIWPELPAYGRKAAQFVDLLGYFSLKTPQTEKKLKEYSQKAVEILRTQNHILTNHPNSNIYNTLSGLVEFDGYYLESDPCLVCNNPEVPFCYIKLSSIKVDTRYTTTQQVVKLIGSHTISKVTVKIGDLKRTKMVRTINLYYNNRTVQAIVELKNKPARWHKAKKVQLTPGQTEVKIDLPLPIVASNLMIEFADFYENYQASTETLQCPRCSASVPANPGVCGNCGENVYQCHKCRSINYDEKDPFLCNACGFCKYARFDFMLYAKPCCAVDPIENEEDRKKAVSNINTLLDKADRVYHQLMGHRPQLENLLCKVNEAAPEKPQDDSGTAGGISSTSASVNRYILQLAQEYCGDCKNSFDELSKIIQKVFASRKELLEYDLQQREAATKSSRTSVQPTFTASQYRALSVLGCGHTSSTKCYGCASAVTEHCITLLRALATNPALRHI
# FLAG-tagged p600 fragment containing residues 3910–4851 (Q5T4S7, residues 3910-4851): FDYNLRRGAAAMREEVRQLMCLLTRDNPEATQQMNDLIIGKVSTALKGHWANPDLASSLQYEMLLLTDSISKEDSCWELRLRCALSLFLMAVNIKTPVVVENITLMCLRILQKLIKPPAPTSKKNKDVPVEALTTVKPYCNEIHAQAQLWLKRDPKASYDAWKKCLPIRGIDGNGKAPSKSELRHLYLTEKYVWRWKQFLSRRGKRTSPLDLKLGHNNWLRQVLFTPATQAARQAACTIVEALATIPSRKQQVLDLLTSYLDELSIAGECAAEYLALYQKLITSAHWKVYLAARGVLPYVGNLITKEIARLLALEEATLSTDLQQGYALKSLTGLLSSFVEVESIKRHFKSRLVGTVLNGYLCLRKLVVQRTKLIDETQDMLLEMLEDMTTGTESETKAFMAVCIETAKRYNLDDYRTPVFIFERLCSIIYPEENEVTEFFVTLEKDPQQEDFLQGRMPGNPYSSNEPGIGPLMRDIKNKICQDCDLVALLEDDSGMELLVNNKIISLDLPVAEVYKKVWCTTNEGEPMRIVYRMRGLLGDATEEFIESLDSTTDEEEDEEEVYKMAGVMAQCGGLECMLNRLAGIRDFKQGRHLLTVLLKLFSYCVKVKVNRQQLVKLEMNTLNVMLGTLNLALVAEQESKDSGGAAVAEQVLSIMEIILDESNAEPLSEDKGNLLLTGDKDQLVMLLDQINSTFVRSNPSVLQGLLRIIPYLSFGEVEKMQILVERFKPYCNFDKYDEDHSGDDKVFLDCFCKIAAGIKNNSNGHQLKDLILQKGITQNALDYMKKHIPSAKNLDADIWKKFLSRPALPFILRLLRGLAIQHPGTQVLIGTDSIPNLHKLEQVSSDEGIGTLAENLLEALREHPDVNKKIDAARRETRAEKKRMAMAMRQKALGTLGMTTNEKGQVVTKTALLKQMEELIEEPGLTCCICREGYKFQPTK
# recombinant p600^4480–5183 (Q5T4S7, residues 4480-5183): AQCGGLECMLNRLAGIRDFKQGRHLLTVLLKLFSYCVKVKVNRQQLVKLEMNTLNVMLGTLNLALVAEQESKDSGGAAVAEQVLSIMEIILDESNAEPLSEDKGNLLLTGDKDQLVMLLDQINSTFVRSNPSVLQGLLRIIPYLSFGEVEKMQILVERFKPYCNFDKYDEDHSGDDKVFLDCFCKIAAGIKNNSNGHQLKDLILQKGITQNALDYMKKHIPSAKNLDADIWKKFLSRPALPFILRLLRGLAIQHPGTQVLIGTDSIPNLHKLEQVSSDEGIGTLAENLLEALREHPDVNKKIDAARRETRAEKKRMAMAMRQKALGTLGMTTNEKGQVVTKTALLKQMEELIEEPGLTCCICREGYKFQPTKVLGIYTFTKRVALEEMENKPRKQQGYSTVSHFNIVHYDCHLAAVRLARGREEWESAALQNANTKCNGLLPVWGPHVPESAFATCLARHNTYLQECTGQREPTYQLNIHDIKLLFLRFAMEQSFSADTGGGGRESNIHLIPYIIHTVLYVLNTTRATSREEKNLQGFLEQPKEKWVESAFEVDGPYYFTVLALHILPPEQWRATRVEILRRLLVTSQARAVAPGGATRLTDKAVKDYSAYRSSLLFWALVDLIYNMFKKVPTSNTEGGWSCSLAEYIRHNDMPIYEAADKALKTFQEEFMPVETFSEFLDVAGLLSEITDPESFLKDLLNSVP
# p600 fragment encompassing residues 4949–5183 (Q5T4S7, residues 4949-5183): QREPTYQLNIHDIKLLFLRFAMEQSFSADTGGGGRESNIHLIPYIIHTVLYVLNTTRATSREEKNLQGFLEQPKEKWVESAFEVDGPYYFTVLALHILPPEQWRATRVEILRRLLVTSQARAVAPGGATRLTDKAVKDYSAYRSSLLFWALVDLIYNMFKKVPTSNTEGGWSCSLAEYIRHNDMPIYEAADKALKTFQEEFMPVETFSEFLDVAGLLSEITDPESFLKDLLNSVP
# Residue numbers refer to the chain shown, from its start. No constants are given. Whether binding was seen depends on the method and setting. For part of these data: Binding seen in cells or lysates may run through a third protein. Some results given as binding are weak or reduced against the parent protein; the word gives no strength. For part of these data: Sequences can lack the tags named with a protein.
# T1: endogenous Ndel1 (HeLa) (human (endogenous in HeLa)) (UniProt Q9GZM8)
# T1 sequence: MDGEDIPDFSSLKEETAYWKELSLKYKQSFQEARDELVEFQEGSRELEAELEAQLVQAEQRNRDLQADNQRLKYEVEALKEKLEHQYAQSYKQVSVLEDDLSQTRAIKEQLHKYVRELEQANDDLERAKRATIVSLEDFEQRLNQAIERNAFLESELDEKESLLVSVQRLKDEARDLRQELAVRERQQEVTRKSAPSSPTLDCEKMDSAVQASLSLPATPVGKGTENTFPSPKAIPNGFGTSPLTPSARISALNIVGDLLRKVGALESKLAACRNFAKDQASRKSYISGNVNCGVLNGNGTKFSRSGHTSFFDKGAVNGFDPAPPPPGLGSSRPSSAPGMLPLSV
# T2: Ndel1^1–201 (coiled-coil region of Ndel1) (UniProt Q9GZM8)
# T2 sequence: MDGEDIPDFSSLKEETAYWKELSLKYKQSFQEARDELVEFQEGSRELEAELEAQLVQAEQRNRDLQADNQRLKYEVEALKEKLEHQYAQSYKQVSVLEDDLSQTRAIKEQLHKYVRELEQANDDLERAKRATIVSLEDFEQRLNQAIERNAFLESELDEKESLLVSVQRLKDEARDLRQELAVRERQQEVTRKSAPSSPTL
# T3: Ndel1 (mouse (endogenous in mouse brain)) (UniProt Q9ERR1)
# T3 sequence: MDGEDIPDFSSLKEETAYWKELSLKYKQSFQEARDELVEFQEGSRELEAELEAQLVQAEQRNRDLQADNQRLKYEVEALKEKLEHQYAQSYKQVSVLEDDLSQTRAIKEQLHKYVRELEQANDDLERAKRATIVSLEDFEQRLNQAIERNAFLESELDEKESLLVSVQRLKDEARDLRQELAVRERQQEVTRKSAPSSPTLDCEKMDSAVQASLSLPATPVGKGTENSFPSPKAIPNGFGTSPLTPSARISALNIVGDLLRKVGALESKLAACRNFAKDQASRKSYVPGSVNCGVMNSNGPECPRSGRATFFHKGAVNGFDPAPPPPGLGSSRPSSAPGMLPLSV
# B1: Lis1 (protein, UniProt P63005 1-410)
# chain: MVLSQRQRDELNRAIADYLRSNGYEEAYSVFKKEAELDMNEELDKKYAGLLEKKWTSVIRLQKKVMELESKLNEAKEEFTSGGPLGQKRDPKEWIPRPPEKYALSGHRSPVTRVIFHPVFSVMVSASEDATIKVWDYETGDFERTLKGHTDSVQDISFDHSGKLLASCSADMTIKLWDFQGFECIRTMHGHDHNVSSVAIMPNGDHIVSASRDKTIKMWEVQTGYCVKTFTGHREWVRMVRPNQDGTLIASCSNDQTVRVWVVATKECKAELREHEHVVECISWAPESSYSSISEATGSETKKSGKPGPFLLSGSRDKTIKMWDVSTGMCLMTLVGHDNWVRGVLFHSGGKFILSCADDKTLRVWDYKNKRCMKTLNAHEHFVTSLDFHKTAPYVVTGSVDQTVKVWECR
# B2: GFP-Lis1 (protein, UniProt P43034 1-410)
# chain: B1 chain with M39V
# How the values were obtained:
# [1] = molecular target: T1, endogenous Ndel1 (HeLa) (human (endogenous in HeLa)); test: co-IP; HeLa cell extracts expressing GFP-Lis1 and one of three FLAG-tagged C-terminal p600 fragments; co-immunoprecipitation with endogenous Ndel1; Western blot
# [2] = molecular target: T2, Ndel1^1–201 (coiled-coil region of Ndel1); test: SEC; analytical SEC, Superdex 200 5/150, 4°C, 10 mM HEPES pH 7.5, 0.15 M NaCl, 1 mM DTT; proteins alone or mixed at 50 µM and incubated 30 min on ice; fractions analysed by SDS-PAGE; both purified
# [3] = molecular target: T4, recombinant p600^4480–5183 (human, UniProt Q5T4S7 4480-5183); test: as above
# T4 construct: Elutes mostly as a monomer (~75 kDa) in SEC; also called C-terminal portion of p600; source: E. coli BL21-Rosetta, purified (glutathione sepharose, PreScission cleavage, Resource Q)
# [4] = molecular target: T2, Ndel1^1–201 (coiled-coil region of Ndel1); test: SEC; analytical SEC with the binding performed at 10 µM; data not included; both purified
# [5] = molecular target: T3, Ndel1 (mouse (endogenous in mouse brain)); test: co-IP; mouse brain lysates, immunoprecipitation with Ndel1 antibodies; Myc antibodies and beads alone as negative controls; Western blot
molecule,measurement,setting,value
FLAG-tagged p600 fragment containing residues 3214–3899 (from UniProt Q5T4S7 3214-3899) (domain or fragment),binding,[1],no binding
FLAG-tagged p600 fragment containing residues 3910–4851 (from UniProt Q5T4S7 3910-4851) (domain or fragment),binding,[1],no binding
FLAG-tagged p600 fragment containing residues 4480–5183 (from UniProt Q5T4S7 4480-5183) (domain or fragment),binding,[1],binds
p600 fragment encompassing residues 4949–5183 (from UniProt Q5T4S7 4949-5183) (domain or fragment),binding,[2],no binding
recombinant p600^4480–5183 (from UniProt Q5T4S7 4480-5183) (domain or fragment),binding,[3],binds weakly
same,binding,[2],binds weakly
same,binding,[4],no binding (condition: at 10 µM)
B1,binding,[5],binds
B2,binding,[1],binds
